32 sequences from paper PMC12820563 can be followed below.

The list shows a part of the results. The list includes weakly bound sequences.

In the experiment the target is T1, MBP-FoxP3dN (UniProt Q99JB6).
T1 sequence: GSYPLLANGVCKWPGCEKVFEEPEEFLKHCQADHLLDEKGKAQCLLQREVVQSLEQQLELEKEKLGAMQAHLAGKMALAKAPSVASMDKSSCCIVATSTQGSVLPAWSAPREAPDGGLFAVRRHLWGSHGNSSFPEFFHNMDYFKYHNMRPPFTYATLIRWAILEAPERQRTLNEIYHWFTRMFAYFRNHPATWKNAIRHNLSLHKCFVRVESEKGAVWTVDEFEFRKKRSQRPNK
The experiment can be described thus: PD-seq (MBP pull-down with sequencing). Conditions: 20 mM Tris-HCl pH 7.5, 100 mM NaCl, 1.5 mM MgCl2, 0.4 uM protein, 0.1 uM dsDNA library, 30 min, room temperature, amylose pull-down; high values mean tight binding; double strand, one strand shown.
Consider “GATGATTGTTCTCCCAGCTGATGAATTACCCAGTTCGAGTAAACAAATTTTCCTAATCTTTCTGTTCAAGCGCCATCTAC”, for which the binding signal (RPM ratio (pull-down/input)) worked out at 0.256. The result for “GATGATTGTTCTCCCAGCTGATGAATTCTTACCATCGAGTAAACAAATTTTCCTAATCTTTCTGTTCAAGCGCCATCTAC” reads 0.29; that for “GATGATTGTTCTCCCAGCTGATGAATTCTGCCGGTCGAGTAAACAAATTTTCCTAATCTTTCTGTTCAAGCGCCATCTAC”, 0.75.

Turning to “GATGATTGTTCTCCCAGCTGATGAATTATACCACTCGAGTAAACAAATTTTCCTAATCTTTCTGTTCAAGCGCCATCTAC”, the binding signal (RPM ratio (pull-down/input)) was 0.6.

Consider “GATGATTGTTCTCCCAGCTGATGAATTCCGCCGTTCGAGTAAACAAATTTTCCTAATCTTTCTGTTCAAGCGCCATCTAC”, for which the binding signal (RPM ratio (pull-down/input)) was 1.53. Take “GATGATTGTTCTCCCAGCTGATGAATTCGGGTTCTCGAGTAAACAAATTTTCCTAATCTTTCTGTTCAAGCGCCATCTAC”: the binding signal (RPM ratio (pull-down/input)) turned out to be 0.692.

Consider “GATGATTGTTCTCCCAGCTGATGAATTGCCTCACTCGAGTAAACAAATTTTCCTAATCTTTCTGTTCAAGCGCCATCTAC”, for which the binding signal (RPM ratio (pull-down/input)) turned out to be 0.851. Regarding “GATGATTGTTCTCCCAGCTGATGAATTCGGCCCGTCGAGTAAACAAATTTTCCTAATCTTTCTGTTCAAGCGCCATCTAC”, the binding signal (RPM ratio (pull-down/input)) came out at 1.14. On to “GATGATTGTTCTCCCAGCTGATGAATTTACGACATCGAGTAAACAAATTTTCCTAATCTTTCTGTTCAAGCGCCATCTAC”, for which the binding signal (RPM ratio (pull-down/input)) was determined as 0.807.

As for “GATGATTGTTCTCCCAGCTGATGAATTGTGCGATTCGAGTAAACAAATTTTCCTAATCTTTCTGTTCAAGCGCCATCTAC”, the binding signal (RPM ratio (pull-down/input)) amounted to 2.62. As to “GATGATTGTTCTCCCAGCTGATGAATTCGAAGTCTCGAGTAAACAAATTTTCCTAATCTTTCTGTTCAAGCGCCATCTAC”, the binding signal (RPM ratio (pull-down/input)) turned out to be 0.336.

Regarding “GATGATTGTTCTCCCAGCTGATGAATTGTGTCGTTCGAGTAAACAAATTTTCCTAATCTTTCTGTTCAAGCGCCATCTAC”, the binding signal (RPM ratio (pull-down/input)) was 2.73. The result for “GATGATTGTTCTCCCAGCTGATGAATTCCCCCTTTCGAGTAAACAAATTTTCCTAATCTTTCTGTTCAAGCGCCATCTAC” reads 0.264; that for “GATGATTGTTCTCCCAGCTGATGAATTCCCTGGATCGAGTAAACAAATTTTCCTAATCTTTCTGTTCAAGCGCCATCTAC”, 0.189; that for “GATGATTGTTCTCCCAGCTGATGAATTCTCAGCTTCGAGTAAACAAATTTTCCTAATCTTTCTGTTCAAGCGCCATCTAC”, 0.293. As for “GATGATTGTTCTCCCAGCTGATGAATTCGTATGGTCGAGTAAACAAATTTTCCTAATCTTTCTGTTCAAGCGCCATCTAC”, the figure is 1.74. In the case of “GATGATTGTTCTCCCAGCTGATGAATTGCGGAACTCGAGTAAACAAATTTTCCTAATCTTTCTGTTCAAGCGCCATCTAC”, the binding signal (RPM ratio (pull-down/input)) amounted to 0.52. As for “GATGATTGTTCTCCCAGCTGATGAATTCCGCCGGTCGAGTAAACAAATTTTCCTAATCTTTCTGTTCAAGCGCCATCTAC”, the binding signal (RPM ratio (pull-down/input)) was 0.838. Consider “GATGATTGTTCTCCCAGCTGATGAATTACTTGTCTCGAGTAAACAAATTTTCCTAATCTTTCTGTTCAAGCGCCATCTAC”, for which the binding signal (RPM ratio (pull-down/input)) is 0.659.

As for “GATGATTGTTCTCCCAGCTGATGAATTCGGACCTTCGAGTAAACAAATTTTCCTAATCTTTCTGTTCAAGCGCCATCTAC”, the binding signal (RPM ratio (pull-down/input)) is 0.266.

For the sequence “GATGATTGTTCTCCCAGCTGATGAATTTGAGCACTCGAGTAAACAAATTTTCCTAATCTTTCTGTTCAAGCGCCATCTAC”, the binding signal (RPM ratio (pull-down/input)) came out at 0.481.

For the sequence “GATGATTGTTCTCCCAGCTGATGAATTTGTTACTTCGAGTAAACAAATTTTCCTAATCTTTCTGTTCAAGCGCCATCTAC”, the binding signal (RPM ratio (pull-down/input)) came to 4.02.

Consider “GATGATTGTTCTCCCAGCTGATGAATTAAGGAGTTCGAGTAAACAAATTTTCCTAATCTTTCTGTTCAAGCGCCATCTAC”, for which the binding signal (RPM ratio (pull-down/input)) is 0.421. As for “GATGATTGTTCTCCCAGCTGATGAATTTTCCCCGTCGAGTAAACAAATTTTCCTAATCTTTCTGTTCAAGCGCCATCTAC”, the figure is 0.175; as for “GATGATTGTTCTCCCAGCTGATGAATTTCTATGCTCGAGTAAACAAATTTTCCTAATCTTTCTGTTCAAGCGCCATCTAC”, 0.385; as for “GATGATTGTTCTCCCAGCTGATGAATTTGTCAGTTCGAGTAAACAAATTTTCCTAATCTTTCTGTTCAAGCGCCATCTAC”, 2.89. In the case of “GATGATTGTTCTCCCAGCTGATGAATTGCGTGCCTCGAGTAAACAAATTTTCCTAATCTTTCTGTTCAAGCGCCATCTAC”, the binding signal (RPM ratio (pull-down/input)) is 2.06. For the sequence “GATGATTGTTCTCCCAGCTGATGAATTTTTATGCTCGAGTAAACAAATTTTCCTAATCTTTCTGTTCAAGCGCCATCTAC”, the binding signal (RPM ratio (pull-down/input)) is 0.454.

With “GATGATTGTTCTCCCAGCTGATGAATTGCTTCCTTCGAGTAAACAAATTTTCCTAATCTTTCTGTTCAAGCGCCATCTAC”, the binding signal (RPM ratio (pull-down/input)) is 0.578. Regarding “GATGATTGTTCTCCCAGCTGATGAATTACGTCGCTCGAGTAAACAAATTTTCCTAATCTTTCTGTTCAAGCGCCATCTAC”, the binding signal (RPM ratio (pull-down/input)) amounted to 0.512. As to “GATGATTGTTCTCCCAGCTGATGAATTCATCGGATCGAGTAAACAAATTTTCCTAATCTTTCTGTTCAAGCGCCATCTAC”, the binding signal (RPM ratio (pull-down/input)) was 0.235. For the sequence “GATGATTGTTCTCCCAGCTGATGAATTCTACTTGTCGAGTAAACAAATTTTCCTAATCTTTCTGTTCAAGCGCCATCTAC”, the binding signal (RPM ratio (pull-down/input)) is 0.783.
